The record followed here is PubChem BioAssay AID485344 (National Center for Advancing Translational Sciences (NCATS), 2010).

The campaign covered roughly 340,000 compounds. About 6,900 (2%) were called active. Cut-off read from the data, not from the text of the source: active = inhibition above about 30%; inactive = below that, where a call was filed. The list shows a part of the results, in another mix than the full data. Where no call is shown, the source filed none.

By inhibition is commonly meant the change of the read-out against control, counted positive when it falls.

This experiment deals with D(2) dopamine receptor (Homo sapiens) (UniProt P14416). The experiment is described as follows: HTS Assay for Allosteric Antagonists of the Human D2 Dopamine Receptor: Primary Screen for Antagonists. Note: 0% is about no effect. The note with it: HEK293 TREx D2 cells, calcium flux, dopamine EC80; at 10 µM; stronger effect = higher value. Summed up: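 Overnight-induced (tetracycline, 30 C) HEK293 T-REx cells carrying force-coupled D2 receive a no-wash calcium dye, then compound, then EC80 dopamine at 180 s; signals are read kinetically throughout.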
Chain of UniProt P14416 (P14416 whole entry, looked up): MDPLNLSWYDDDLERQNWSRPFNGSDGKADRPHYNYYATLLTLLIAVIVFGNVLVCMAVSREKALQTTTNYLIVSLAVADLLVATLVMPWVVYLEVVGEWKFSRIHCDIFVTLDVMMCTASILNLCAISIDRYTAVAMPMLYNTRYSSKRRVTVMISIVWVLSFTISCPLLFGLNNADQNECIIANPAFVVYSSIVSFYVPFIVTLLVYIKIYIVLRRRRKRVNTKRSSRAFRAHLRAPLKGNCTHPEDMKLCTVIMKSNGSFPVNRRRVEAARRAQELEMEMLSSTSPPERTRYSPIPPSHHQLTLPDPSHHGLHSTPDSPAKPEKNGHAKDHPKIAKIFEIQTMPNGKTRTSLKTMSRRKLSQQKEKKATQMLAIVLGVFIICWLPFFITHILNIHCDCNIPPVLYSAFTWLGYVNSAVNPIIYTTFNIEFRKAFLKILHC
A general note: Calcium assays in cells follow changes in intracellular calcium, usually with a dye or a luminescent sensor.
On to `O=C(NCCSc1c(-c2ccc(Cl)cc2)[nH]c2ccccc12)c1ccc(S(=O)(=O)N2CCOCC2)cc1`, for which the inhibition is 3.07%.

With `COc1ccc(Nc2ncnc3c2cnn3C)c(OC)c1`, the inhibition was 1.41%. Take `Cc1nn(-c2ccccc2)c2c1cc1c(=O)[nH]c(=O)nc-1n2-c1cccc(C(F)(F)F)c1`: the inhibition came out at 27.2%.

As to `Cc1cc(C)c(S(=O)(=O)NCC(c2ccco2)N2CCN(c3ccccc3)CC2)c(C)c1` (stereo not given), the inhibition was 2.84%.

As to `Cc1ccc(-n2nc3c(=O)n(CCCC(=O)NCc4ccc(F)cc4)nc(C)c3c2C)cc1`, the inhibition was determined as 13.9%. Take `Cc1cc(C(F)(F)F)c2c(N)c(C(=O)Nc3c(Cl)cccc3Cl)sc2n1`: the inhibition was found to be 11.9%.

Consider `Cc1ccc2c(c1)-c1onc(C(=O)N3CCN(c4cccc(C)c4C)CC3)c1CO2`, for which the inhibition came out at 1.41%. In the case of `O=C(CN1CCN(Cc2ccc(F)cc2)C1=O)NCc1ccccc1` it was 1.49%; in that of `CCCCN(CCCC)C(=O)c1cc2c(=O)n3ccccc3nc2s1`, 11.9%; in that of `Cc1ccc(Cl)cc1N1CCN(C(=O)C(C)n2ncn3cccc3c2=O)CC1` (stereo not given), 8.43%.

On to `CCNC(=O)c1c(NC(=O)c2cc(=O)c3ccc(C)c(C)c3o2)sc2c1CCCC2`, for which the inhibition was 3.83%. As to `Cc1cccc(N2CCN(S(=O)(=O)c3ccc(F)c(C(=O)Nc4cccc(Cl)c4C)c3)CC2C)c1` (stereo not given), the inhibition was -13.7%. Regarding `COc1ccccc1NC(=O)Nc1ccc(-n2ccc(C(F)(F)F)n2)cc1`, the inhibition was active: 70.8%. Regarding `CCN1CCN(C(=O)Cn2ncc3c4ccccc4n(Cc4ccccc4F)c3c2=O)CC1`, the inhibition was -5.52%. For the compound `O=C(CC(c1cccs1)N1Cc2ccccc2C1=O)Nc1ccccc1` (stereo not given), the inhibition amounted to 0.464%. As to `O=C(c1cccc2ccccc12)N1CCC(N2CCN(c3ccccc3)CC2)CC1`, the inhibition was active: 74.9%.

For the compound `O=c1cc2nc(-c3ccccc3)nc(SCc3cccc(Br)c3)n2[nH]1`, the inhibition was determined as 8.41%. For the compound `COc1cccc(N2CCN(C(=O)c3cnc4c(C)cccn4c3=O)CC2)c1`, the inhibition was -11.6%. In the case of `Cc1cccc(N2CCN(C(c3ccc(F)cc3)c3nnc(-c4ccccc4)o3)CC2)c1C` (stereo not given), the inhibition is 8.03%. For `COc1ccc(N2CCN(C(CNC(=O)C(=O)NCc3ccc(C)cc3)c3cccnc3)CC2)cc1` (stereo not given), the inhibition is 4.54%.

As to `Cc1ccccc1-c1nc(NC(=O)CSc2ncnc3sc4c(c23)CCCC4)ns1`, the inhibition is 4.44%. Consider `CC(C)Oc1ccc(CNC(=O)C2CCN(C(=O)N3CCOc4ccc(Cl)cc43)CC2)cc1`, for which the inhibition was -2.04%. As to `Cc1cccc(NC(=O)CSc2nc3ccccc3c3nc(CCn4cncc4C)nn23)c1`, the inhibition is -0.289%. Take `COc1ccccc1NC(=O)c1sc2cccc(Cl)c2c1Cl`: the inhibition is -4.43%. Consider `CCOc1ccc(CCNC(=O)c2cc3c(=O)n(C)c4ccccc4c3s2)cc1OCC`, for which the inhibition stood at 7.36%. In the case of `CCCC12CN3CC(C)(CN(C1)C3c1ccc(CC)cc1)C2=O` (stereo not given) it was -14.2%. Turning to `CCOC(=O)c1ccc2ncc(C(=O)OCC)c(NCCc3ccc(OC)c(OC)c3)c2c1`, the inhibition turned out to be 12.7%.

As for `Cc1cc(C)c(NC(=O)c2ccc(CN3CCc4ccccc4C3)cc2)c(C)c1`, the inhibition was active: 52.4%.

For `COc1ccc(CN2CCN(C(=O)c3ccco3)CC2)cc1`, the inhibition is active: 87.3%. In the case of `O=C(Cn1c2[n+](c3ccc(C(F)(F)F)cc31)CCCCC2)c1cccc([N+](=O)[O-])c1`, the inhibition was active: 35.3%.

Regarding `CCc1ccc(OCC(=O)NCC(c2ccc(Cl)cc2)N2CCOCC2)cc1` (stereo not given), the inhibition came to 3.05%. For `Cc1ccc2ncc(C(=O)Nc3cccc(C(F)(F)F)c3)c(=O)n2c1` the value was 4.46%; for `COc1ccc(OC)c(NC(=O)Cn2ccn(-c3ccc(F)cc3)c(=O)c2=O)c1`, -1.87%. For the compound `COc1ccc(-c2nc(SCC(=O)NCC3CCCO3)c(-c3ccc(Cl)cc3)[nH]2)cc1` (stereo not given), the inhibition is -18.3%. As to `Cc1c(Cl)ccc2sc(NC(=O)c3ccc(S(=O)(=O)N4CCCC4)cc3)nc12`, the inhibition was -6.79%.

In the case of `CCCNC(=O)CCn1nc(-c2ccc(C)cc2)c2ccccc2c1=O`, the inhibition was 1.11%. Consider `COc1ccc(C)cc1S(=O)(=O)Nc1cccc(-c2ccc(N3CCCC3)nn2)c1`, for which the inhibition came out at 21.7%.

As to `O=C(NCc1ccc2c(c1)CCN2C(=O)c1ccncc1)c1ccccc1Br`, the inhibition came out at 17.4%. Take `Cc1ccc(S(=O)(=O)c2c(Nc3ccccc3)sc(C(=O)c3ccc4c(c3)OCO4)c2N)cc1`: the inhibition was -0.7%. Turning to `O=C(COC(=O)/C=C/c1cccc([N+](=O)[O-])c1)Nc1ccc(Cl)cn1`, the inhibition was active: 39.3%. In the case of `COc1cccc(-n2cc(C(=O)Oc3ccc(F)cc3)c3ccccc3c2=O)c1`, the inhibition was -7.45%. As for `Cc1nn2c(=O)cc(COC(=O)c3ccccc3NC(=O)C(C)C)nc2s1`, the inhibition came to 8.6%. In the case of `COc1ccc(S(=O)(=O)N2CCC(c3nnc(-c4ccccc4C)o3)CC2)c(OC)c1` it was -5.16%; in that of `Cc1ccc(N2C(=O)c3n[nH]c(C)c3C2c2ccccc2Cl)cc1` (stereo not given), 20.1%; in that of `CC(=O)Nc1c(C)nn(-c2ccccc2)c1N1CCC(C(=O)Nc2cc(F)ccc2F)CC1`, 11.4%. Consider `COc1ccccc1NC(=O)N1CCN(Cc2nc3ccc(C)cc3o2)CC1`, for which the inhibition came to 16.2%. For the compound `Cn1cc(S(=O)(=O)N2CCCC2)cc1C(=O)N1CCN(c2cccc(Cl)c2)CC1`, the inhibition was -10.8%.

Turning to `Cc1cc(C)c(NC(=O)Cn2c(=O)n(CC3CCCO3)c(=O)c3ccccc32)c(C)c1` (stereo not given), the inhibition is 14.9%. In the case of `Cc1cc2c(cc1NS(=O)(=O)c1ccc(NC(=O)CC(C)C)cc1)n(C)c(=O)c(=O)n2C`, the inhibition was -1.63%. In the case of `Cc1ccc(Cn2c(=O)n(CCCCC(=O)NCc3ccc4c(c3)OCO4)c(=O)c3ccccc32)cc1` it was 15.3%.

For the compound `COc1cccc(N2CCN(C3=NS(=O)(=O)C(c4ccc(C)cc4)=C3C)CC2)c1`, the inhibition was -5.06%. In the case of `CCc1ccccc1NC(=O)CSc1ncc2c(n1)-c1cc(Cl)ccc1N(Cc1ccccc1)S2(=O)=O` it was -2.61%; in that of `Cc1cc(C)cc(C(=O)NCCc2csc(-c3ccc(C(F)(F)F)cc3)n2)c1`, -14%; in that of `CCc1ccccc1S(=O)(=O)Cc1ccc(C(=O)NCCc2ccc(C)cc2)o1`, 15.2%.

`CCC(Sc1nnc2c(n1)[nH]c1ccccc12)C(=O)Nc1ccccc1OC` (stereo not given): the inhibition was -4.24%. In the case of `CCCCn1cc(S(=O)(=O)c2ccc(OC)cc2)c(=O)c2cc(F)c(N3CCOCC3)cc21`, the inhibition is -1.55%. For `COc1ccc(CCNC(=O)CCc2c(C)nc3c4cccnc4nn3c2C)cc1OC` the value was -16.1%; for `Cc1c(C(=O)OCC2CCCCC2)[nH]c2c1C(=O)CC(c1ccccc1Cl)C2` (stereo not given), 3.18%; for `COc1ccc(NC(=O)c2ncn(-c3ccccc3)n2)cc1Cl`, 11.4%.

In the case of `CCc1ccc(-n2nc(C)c3c(C)cc(=O)n(CC(=O)Nc4cc(C)ccc4C)c32)cc1`, the inhibition amounted to 25.7%. `Cc1nnsc1C(=O)Oc1ccc(Cl)cc1`: the inhibition is -4.07%. On to `CN1C(=O)Cc2cc(S(=O)(=O)NCc3ccc(Cl)cc3)ccc21`, for which the inhibition turned out to be 19.4%. For `O=C(NCc1ccccc1)C(=O)NCC(c1cccs1)S(=O)(=O)c1cccs1` (stereo not given), the inhibition was -4.87%. Consider `O=C(CSc1nc2c([nH]c3ccccc32)c(=O)n1-c1cccc(Cl)c1)c1ccccc1`, for which the inhibition was -19%. For the compound `COc1ccc(N2CCN(CCCNC(=O)c3cnn(-c4ccc(C)cc4)c3-n3cccc3)CC2)cc1`, the inhibition is -2.75%. As to `CCOc1ccc(NC(=O)N(Cc2cn(CC)c3ccccc23)C2CCCCCC2)cc1`, the inhibition came out at 12.9%. As for `COc1ccc(CCN(C)C(=O)CCNS(=O)(=O)c2ccccc2C(F)(F)F)cc1OC`, the inhibition was active: 34.7%. `Cc1cc(C)c(NC(=O)C2CCN(S(=O)(=O)c3c(C)noc3/C=C/c3ccccc3F)CC2)c(C)c1`: the inhibition was -14.6%. As to `COc1ccc(S(=O)(=O)c2c(Nc3ccc(C)cc3C)sc(C(=O)c3ccc(F)cc3)c2N)cc1`, the inhibition amounted to 14.3%.

Consider `CN(C)c1ccc(C(CNC(=O)c2ccccc2Cl)N2CCCC2)cc1` (stereo not given), for which the inhibition is -1.17%. In the case of `CSc1ccccc1NC(=O)Nc1ccc(F)c(Cl)c1` it was active: 42.8%; in that of `CCOCCCNC(=O)c1cn(CC)c2ccc(S(=O)(=O)N3CCOCC3)cc2c1=O`, 7.74%. Take `CCOC(=O)c1ccc(N2CCN(c3ccccc3OC)CC2)c(NC(=O)Nc2ccc(CC)cc2)c1`: the inhibition came to 0.435%. On to `Cc1cccc2sc(N(Cc3cccnc3)C(=O)CCOc3ccccc3)nc12`, for which the inhibition was 5.78%. Take `CCOC(=O)CSc1nc2ccc(NC(=O)COc3ccc(F)cc3)cc2s1`: the inhibition is -19.8%. `COc1ccc(CNC(=O)C2=CC(c3ccc(OC)c(OC)c3)=NS(=O)(=O)N2C)cc1`: the inhibition stood at 16%. On to `Cc1ccc(-c2cc(C(=O)O)c3ccccc3n2)s1`, for which the inhibition was active: 34.2%. Consider `CCOc1ccc(C(=O)OCc2cc(=O)n3nc(C4CC4)sc3n2)cc1`, for which the inhibition is -10.1%. In the case of `COc1cc(Cl)c(C)cc1NC(=O)c1cc2c(=O)oc3ccccc3c2s1`, the inhibition was -16.5%. As to `CCn1cc(C(=O)N2CCN(c3cc(Cl)ccc3C)CC2)c(=O)c2cc(S(=O)(=O)N3CCCC3)ccc21`, the inhibition was 0.268%. As for `COc1cc2nc(SCC(=O)Nc3ccccc3C)n3nc(CCn4c(C)nc5ccccc54)nc3c2cc1OC`, the inhibition was -17.5%. In the case of `CC(C)(C)C1CCc2c(sc(NC(=O)c3ccco3)c2C(=O)Nc2ccccc2Cl)C1` (stereo not given), the inhibition was -17%. Regarding `Cn1ccc2c(OCC(=O)Nc3ccc(OC(F)(F)F)cc3)cccc2c1=O`, the inhibition is -2.84%. For `CC(=O)c1ccc(NS(=O)(=O)c2ccc(Br)s2)cc1` the value was 2.15%; for `CCCSc1ncc(Cl)c(C(=O)N(Cc2ccccc2)c2ccc(OC)cc2)n1`, 5.87%; for `CCc1cnc2c(c1SCC(=O)NCc1ccc(C)cc1)c(=O)n(C)c(=O)n2C`, 7.28%. Turning to `CCOC(=O)c1c(C)oc2nc(C)nc(NCC3CCN(Cc4cc(C)ccc4C)CC3)c12`, the inhibition was -13.3%. In the case of `Cc1ccc(N2C(=O)C(CC(=O)Nc3cccc(F)c3)N(CCc3ccccc3F)C2=O)cc1` (stereo not given), the inhibition is -2.03%. For the compound `CCCN(C(=O)CCc1nc(-c2ccc(C)cc2)no1)c1ccc(OCC)cc1`, the inhibition is -8.42%. As to `COc1cccc(/C=C/c2nc(C#N)c(NC3CCCCC3)o2)c1`, the inhibition was 1.02%. In the case of `CSc1ccc(CCNC(=O)Cn2c(C)c3cnn(-c4ccccc4)c(=O)c3c2C)cc1`, the inhibition came out at 0.513%. For `COc1cccc(-n2c(=O)c3sc4ccccc4c3n(Cc3c(F)cccc3Cl)c2=O)c1` the value was -3.89%; for `Cc1ccc(-n2nc(CO)c(C(=O)NCCC(C)C)n2)cc1C`, -6.21%.

Turning to `CCc1cccc(NC(=O)CSc2nnc(-c3cc4occc4n3C)n2-c2ccccc2C)c1`, the inhibition was -4.56%.

As to `COc1ccc(N(CC(=O)N2CCc3ccccc3C2)S(=O)(=O)c2ccccc2)cc1`, the inhibition stood at 9.43%.
